These results are taken from publication PMC3012355 (The Journal of neuroscience : the official journal of the …, 2009).

Test [1] has as its target T1, rat SERT (rSERT; serotonin transporter) (Rattus norvegicus, UniProt P31652). Nature of the test: biochemical. The arrangement: species or system HeLa.
The target in test [2] is T1, rat SERT (rSERT; serotonin transporter). Kind of test: biochemical. More on the design: species or system HeLa. The source holds these as a separate data set.
The target is the same in test [3]. Nature of the test: […]β-CIT filtration binding, HeLa membranes.

Sequence of UniProt P31652 (P31652 whole entry): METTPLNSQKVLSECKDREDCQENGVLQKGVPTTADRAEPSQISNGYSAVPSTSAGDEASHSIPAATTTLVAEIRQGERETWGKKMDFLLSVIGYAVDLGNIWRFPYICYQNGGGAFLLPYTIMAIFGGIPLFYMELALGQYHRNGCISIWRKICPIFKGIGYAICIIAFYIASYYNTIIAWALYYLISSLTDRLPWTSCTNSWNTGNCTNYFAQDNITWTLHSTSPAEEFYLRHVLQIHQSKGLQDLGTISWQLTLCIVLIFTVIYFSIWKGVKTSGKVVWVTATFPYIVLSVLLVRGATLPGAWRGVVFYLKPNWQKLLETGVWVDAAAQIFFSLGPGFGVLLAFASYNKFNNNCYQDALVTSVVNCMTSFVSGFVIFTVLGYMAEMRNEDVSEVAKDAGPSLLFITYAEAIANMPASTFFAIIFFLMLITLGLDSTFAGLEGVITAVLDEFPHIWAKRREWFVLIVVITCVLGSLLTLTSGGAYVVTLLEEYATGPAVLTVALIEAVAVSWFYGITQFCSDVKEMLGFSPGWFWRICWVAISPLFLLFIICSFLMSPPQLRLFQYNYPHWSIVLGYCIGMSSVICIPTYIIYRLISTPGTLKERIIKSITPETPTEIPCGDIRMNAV

With `COC(=O)[C@H]1C(c2ccc(I)cc2)C[C@@H]2CC[C@H]1N2C` (stereo partly drawn) [β-CIT], the figures for the Kd in test [1] and in test [2] were 2.6 ± 0.4 nM and 2.5 ± 0.8 nM, respectively.

In turn, `COC(=O)[C@H]1[C@@H](c2ccc(I)cc2)C[C@@H]2CC[C@H]1N2C` [β-CIT, (–)-2β-carbomethoxy-3β-(4-iodophenyl) tropane] came in with a Kd in test [3] of 0.6 ± 0.2 nM.

As usually defined, the Kd is the free concentration of one partner at which half of the binding sites on the other are occupied at equilibrium, for simple one-to-one binding.
